Experimental data: the supplement of paper PMC11383711
This is one part of the list. Binding of human antibodies (heavy:light variable regions, tested as scFv in one mRNA-display pool) to influenza hemagglutinin, with or without the stem antibody CR9114 bound first. Score = (mean enrichment − median) / interquartile range of that screen; higher = more enriched, 0 = typical non-binder. Active = above the paper's cut-off per screen: stems 28; unblocked H1 Solomon Islands 5, H1 Michigan 3, H3 5, H5 19, H7 2.85, both B 5; blocked 9, 7, H5 10, H7 10, B Phuket 10, B Lee 11.5. Scores are scaled within each screen and are no affinities; replicates correlate at about 0.6 to 0.9, and antibodies rare in the pool are noisier.

Legend:
Experiment in all cases: mRNA display binding score; higher = more enriched on the antigen
[1] = biological target: Influenza A H1N1 A/Michigan/45/2015 hemagglutinin ectodomain
Protocol: (§1)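 A pool of natively paired antibodies, displayed as scFv on mRNA, was selected once on antigen-coated beads and sequenced before and after; two replicates.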

[2] = biological target: Influenza A H1N1 A/Solomon Islands/3/2006 hemagglutinin ectodomain
Protocol: as §1

[3] = biological target: Influenza A H3N2 A/Singapore/INFIMH-16-0019/2016 hemagglutinin ectodomain; settings: antigen blocked with: nothing
Protocol: as §1

[4] = biological target: Influenza A H5N1 A/Qinghai/1A/2005 hemagglutinin ectodomain
Protocol: as §1

[5] = biological target: Influenza A H7N9 A/Shanghai/2/2013 hemagglutinin ectodomain
Protocol: as §1

[6] = biological target: Influenza B/Lee/1940 hemagglutinin ectodomain
Protocol: as §1

[7] = biological target: Influenza B/Phuket/3073/2013 hemagglutinin ectodomain
Protocol: as §1

[8] = antigen blocked with: 2 µM CR9114 IgG

| Binder | mRNA display binding score [1, 8] | mRNA display binding score ([1]; antigen blocked with: nothing) | mRNA display binding score [2, 8] | mRNA display binding score ([2]; antigen blocked with: nothing) | mRNA display binding score [3] | mRNA display binding score [4, 8] | mRNA display binding score ([4]; antigen blocked with: nothing) | mRNA display binding score [5, 8] | mRNA display binding score ([5]; antigen blocked with: nothing) | mRNA display binding score [6, 8] | mRNA display binding score ([6]; antigen blocked with: nothing) | mRNA display binding score [7, 8] | mRNA display binding score ([7]; antigen blocked with: nothing) |
| --- | --- | --- | --- | --- | --- | --- | --- | --- | --- | --- | --- | --- | --- |
| R95-2C10 (protein) chain 1: EVQLVESGGVAVKPGGSLRLSCAASGFTFDDYVMHWVRQVPGKGLEWVSLISWDGGSRYYADSVKGRFTISRDNSKNSLYLQMNNLRPEDTALYYCVKDRESGNYYHFYYMDAWGKGTTVTVS chain 2: QSVLTQPPSVSAAPGQKVTISCSGSSSNIGNNHVSWFQQLPGTAPKLLIYDNDKRPSGIPDRFSGSKSGTSATLGITGLQTGDEADYYCETWDSSLSGGGVVFGGGTRLTVI | inactive: -0.57 | inactive: -0.937 | inactive: -0.595 | inactive: -0.528 | inactive: 0.706 | inactive: -1.11 | inactive: -0.659 | inactive: -0.908 | inactive: -0.698 | inactive: -0.141 | inactive: -0.359 | inactive: -0.361 | inactive: -0.375 |
| 56.b.16 (protein) chain 1: EVQLVESGGGLVQPGGSLRLSCSASGFNVSDYAMHWVRQAPGKGLEYVSLISSNGFSTFYTDSVKGRFIISRDNSKNTLYLQMSSLRHDDTAVYYCVRAESHDFWSGYYWGHGTLVTVSS chain 2: DVVMTPGSVSLPVTLGQPASISCRSSQSLVYSDGNTYLSWFQQRPGQSPRRLIYKVSNRDSGVPDRFSGSGSGTDFTLKIRGMEAEDVGVYYCLQTTHWPPTFGQGTKVEIK | inactive: 3.2 | inactive: 0.49 | inactive: -0.549 | inactive: 0.947 | inactive: 0.335 | inactive: -0.355 | inactive: -0.479 | inactive: 0.188 | inactive: -0.518 | inactive: -0.195 | inactive: -0.348 | inactive: 0.209 | inactive: 0.573 |
| 039-10-4B05 (protein) chain 1: QVQLVQSGAEVKKPGASVKVSCETSGYMFTAYATHWVRQAPGQGLEWMGWVNGLNGNTKYSEKFQGRITITRDTSATTAYMELSSLRSDDTAVYYCARGNIANWFDPWGQGTLVTVSS chain 2: DIQMTQSPSSLSASVGDRVTITCRASQDIRKSLAWYQQKPGKAPKVLVFATSRLEDGVPSRFSGSGSGTEYTLTISSLQPEDFATYHCQQYQSTPYTFGQGTKVEIK | inactive: -0.194 | inactive: -0.252 | inactive: -0.681 | inactive: -0.258 | inactive: -0.523 | inactive: -0.265 | inactive: -0.335 | inactive: -0.163 | inactive: -0.444 | inactive: 0.287 | inactive: -0.407 | inactive: -0.445 | inactive: 0.00109 |
| AG12-C06 (protein) chain 1: VQLQESGPGMVRPSQTLSLFCTVSGDSIGSGTDYWNWVRQPPGKGLEWVGDIPDRGNPNYNPSLRSRLSISRDTSKNRISLTLTSVTAADTAVYYCARASGTRVATITDYYGMDVWGQGTTVTVSS chain 2: DIQMTQSPSSLSASVGDRVTITCRASQAITNHLNWYQSKPGKAPKFLISAASTLQNGVPSRFSGSGSGTDYSLTITNLQPDDFATYYCQQSHSNPITFGQGTRLEIK | inactive: -0.577 | inactive: -0.178 | inactive: -0.47 | inactive: -0.691 | inactive: -0.483 | inactive: -0.671 | inactive: -0.478 | inactive: -1.1 | inactive: -0.568 | inactive: -0.539 | inactive: -0.403 | inactive: -0.628 | inactive: -0.418 |
| R95-1E01 (protein) chain 1: EVQLVESGGGLVQPGRSLRLSCAGDGFSFDDHAMHWVRQAPGKGLEWVSGISWNSGSIGYVDSVKGRFTISRDNAKNSLYLQMNTLRPEDTALYYCVRDMNWNSQIGGYYFDYWGQGALVTVSS chain 2: DIQMTQSPSSLSASVGDRVTITCRASHNITNFLNWYQQKPGKAPKLLIYGTSSLQSGVPSRFSGSGSGTDFTLAISSLHPEDFATYYCQQSYSIHPYTFGQGTKLDIK | inactive: -0.17 | inactive: -0.339 | inactive: -0.599 | inactive: 1.05 | inactive: -0.375 | inactive: 0.0586 | inactive: -0.422 | inactive: -0.488 | inactive: -0.622 | inactive: 0.555 | inactive: 0.112 | inactive: -0.36 | inactive: -0.00151 |
| antibody 3E05 (protein) chain 1: VQLVQSGAEVKKPGASVKVSCKASGYTFTTYDIHWVRQAPGQGLEWMGWLNPNSGYTVYAQKFQGRLTMTRNTSIRIAYLELSSLRSEDTAVYYCARDDGYCTSNNCYSRGMDVWGQGTTVTVSS chain 2: EIVLTQSPGTLSLSPGERATLSCRASQNFSSNYLAWYQQKPGQAPRLLIYGASSRATGIPDRFSGSGSGTDFTLTISRLEPEDFAVYYCHQYGRSFGQGTKVEIK | inactive: -0.498 | inactive: -0.364 | inactive: -0.786 | inactive: 1.17 | inactive: -0.333 | inactive: -0.246 | inactive: -0.479 | inactive: -0.166 | inactive: -0.127 | inactive: 1.32 | inactive: 1.79 | inactive: -0.674 | inactive: -0.158 |
| 56.f.01 (protein) chain 1: QVHLVQSGAEVKKPGASVKVSCKVSGHTLSELSIHWVRQAPGNVLEWMGGFDPEDGESISAQMFQGRVIMTEDSSKDTAYMELSSLTSEDTAVYYCATGSYCSATYCSFDYWGQGTLVTVSS chain 2: AIRMTQSPVSLSASVGDRVTITCWASQGISNYLVWIQQKPAKAPRLFIYYASSLQSGVPSRFSGSGSGTDYTLTIISLQPEDFATYYCQQFYGSLPLTFGGGTKVEIK | inactive: -0.319 | inactive: -0.557 | inactive: -0.584 | inactive: -0.431 | inactive: -0.0358 | inactive: -0.807 | inactive: -0.639 | inactive: -0.916 | inactive: -0.551 | inactive: 0.236 | inactive: -0.433 | inactive: -0.607 | inactive: -0.406 |
| AG7-3B02 (protein) chain 1: VQLVESGGVVVQPGGSLRLSCAASGFTFDDCAMHWVRQAPGKGLEWVSLITWDGGSTYYADSVKGRFTISRDNNKNSLYLQMNSLRAEDTALYYCAKDMSSGYYSIFDSWGQGTLVTVSS chain 2: EIVMTQSPATLSVSPGERATLSCRASQTISGNLAWYQQKPGQAPRLLIYYASARATGIPARFSGSGSGTEFTLTISSLQSEDFALYYCQHYNNWPPQFGPGTKVDIK | inactive: -0.168 | inactive: 0.465 | inactive: -0.503 | inactive: 0.599 | inactive: 2.31 | inactive: -0.102 | inactive: 0.138 | inactive: -0.974 | inactive: -0.096 | inactive: 0.057 | inactive: -0.105 | inactive: 0.539 | inactive: 0.232 |
| K77-2G05 (protein) chain 1: QVQLQESGPGRVKPSETLSLTCTVSGGSVSSDSFYWSWIRQPPGRGLEWIGYISKSGSTNYTPSLKSRVTVSIETSKNQISLNLSSVTAADTAVYYCARAFRGYCITTDCYIFDYWGQGTLVTVSS chain 2: DIVMTQSPDSLAVSLGERATINCKSNRSILFSSNNKNYLAWYQQKPGQPPKLLIYWASTRESGVPDRFSGSGSGTDFTLTISRLQAEDVAVYYCQQYYGTPLTFGGGTKVEIK | inactive: -0.206 | inactive: 1.54 | inactive: 0.341 | inactive: 0.0952 | inactive: -0.443 | inactive: 1.19 | inactive: 0.172 | inactive: -0.478 | inactive: 1.07 | inactive: 1.39 | inactive: -0.0821 | inactive: 1.12 | inactive: 1.18 |
| K77-1G04 (protein) chain 1: QVHLVQSGAEVKNPGASVKVSCKASGYTFTEYYMHWVRQSPGQGLEWMGWINPKTGGTNYAQKFQGWVTMTRDTSIKTVYMELSRLRCDDTAVYYCARDDGYTTGADVWGRGTTVTVSS chain 2: SYELTQPPSVSVSPGQTARITCSGDALPKQYAYWYQQKPGQAPVMVIYKDSERPSGIPERFSGSSSGTTVTLTISGVQAEDEADYYCQSADSGGTYQLFGGGTKLT | inactive: -0.535 | inactive: -0.065 | inactive: -0.221 | inactive: -0.467 | inactive: 0.66 | inactive: -0.756 | inactive: 0.0457 | inactive: 0.202 | inactive: -0.233 | inactive: 0.931 | inactive: -0.191 | inactive: -0.528 | inactive: -0.172 |
| K77-2A04 (protein) chain 1: QVHLQESGPGLVKPSGTLSLTCDVSGVSIRSPNWWSWVRQSPGKGLEWIGEIYHSADTNYNPSLKSRVTISLDKSKNQFSLKLISVTAADTAVYYCGRDRYDSSGFYRGYYYGIDVWGQGTTVTVS chain 2: DVVMTQSPLSLPVTLGQAASISCRSGQSLVHTDGNTYLNWFQQRPGQSPRRLIYQVSNRDSGVPDRFSGSGSGTDFTLKISRVEAEDVAVYYCMQGTHWPPTFGQGTKVEVK | inactive: 0.767 | inactive: 0.965 | inactive: 0.451 | inactive: 0.112 | inactive: 1.18 | inactive: 4.4 | inactive: 18.9 | inactive: 0.723 | inactive: 0.614 | inactive: 0.454 | active: 154 | active: 12.5 | active: 107 |
| K77-2F01 (protein) chain 1: QVQLQESGPGLVKPSGTLSLTCAVSGGSISSSHWWSWVRQPPGKGLEWIGEIHHSGTSNHNPSVESRVNISVDKSKNHFSLELTSVTAADTAVYFCARVSTVAGHRSSYCLDSWGQGTLVAVSS chain 2: QSALTQPASVSGSPGQSITISCTGTSSDVGGYDYVSWYQQHPGKAPKVIIYDVSYRPSGVSNRFSGSKSGNMASLTISGLQAEDEADYYCSSYTTTFTLLFGGGTKVT | inactive: -0.469 | inactive: -0.731 | inactive: -0.577 | inactive: -0.189 | inactive: -0.339 | inactive: -0.802 | inactive: -0.58 | inactive: -0.432 | inactive: -0.625 | inactive: 0.416 | inactive: -0.168 | inactive: -0.31 | inactive: -0.147 |
